The RNAGym collection of RNA variant scans (doi:10.7554/elife.90254)
The source gives no read counts; variants with many changes may rest on few reads.

B1: LINE1-mini (parent)
chain: GGCAGAGCUCAACACAGCGUGGCAAAGUGGCUGUGGCUAGACUGCC

Variants of: B1
Test: self-cleavage, relative activity (ratio to wild type); higher = more cleavage; in vitro, sequencing; the parent is a self-cleaving ribozyme

Variant	self-cleavage
C15G C31A C37G	0.02
C15A G29C U38A A39C C46A	0.69
C15U G21U C37G	0
C15U G22C G27U G36U	0.14
C15G G17C A26G U28C A39G G44C C46G	0
C15U A25G C45A	0.07
C15U G44C C46U	0.06
C15A U28A G33A	0.11
C15U A25G G30A	0.06
C15G G17C U20G U34A	0.18
C15G G21A G27A	0.03
C15U G29U G35A G44U	0.05
C15G A16C C31U	0.02
C15U C18G G27C A39C	0.09
C15G U20C C31G	0.02
C15U C23G C45U	0.93
C15U G19C U34A	0.07
C15G G22U G33C	1.12
C15G U20G G29A	0.01
C15G C45G C46U	0.01
C15G G17C G36U	0.09
C15U C18G C46U	0.03
C15G U20A G21A U28C	0
C15A U20C A25U	0.05

Variant	self-cleavage
C15G G30U C37G	0.01
C15G G30C G35U	0.04
C15A G29U G30U U32C	0.03
C15A U32G C46G	0.23
C15G U32C G33U	0.04
C15U C18U G33A G44U	0.04
C15U G27A G35A	0.6
C15U C18U G21C	1.85
C15U C18G G36C	0.01
C15A G33C C42U	0.02
C15U G27A G33A C45U	0.59
C15U G22U G27U U34C	0.09
C15U C18U G36C	0.02
C15G G29U A41G	0.01
C15A G36U U43C	0.02
C15G C23A G44C	0.02
C15G C23A G44A	0.05
C15U G17C G27C G35U C45A	0.04
C15A U20A G22C G29C C31G A41U C42A	0.01
C15G A16C G29U	0.04
C15U G19A G36A C37G	0.12
C15U A16G U28A C31A U38C	0.04
C15U G21C G29A G33A U34A	0.47
C15G G22U C37A U43A	0.02

Variant	self-cleavage
C15G A16U U32A	0.07
C15U A24U G29C	0.55
C15G A16C U34C G40U	0.17
C15U G19U C31U C45G	0.02
C15G G27C U32A U43C	0.08
C15G A16C G27U G30U	0.08
C15G U32A A41G	0.01
C15U G17U A25G	0.04
C15G G29U A39G A41G	0.02
C15U G29A C37A	0.11
C15A U20A G22A G35U A41C	0.03
C15U G33A G35U	0.03
C15A G30A C31A	0.01
C15U G27C G44C	1.86
C15U G40U U43G	0.07
C15U G22U G27A U28C	1.65
C15U A24C U34G	0.02
C15U G36U A41C	0.02
C15G G27U G30C C31G	0.02
C15U G29C U34A	0.04
C15U G22C C31U G36A C45A	0.03
C15G G22C U34G G36A	0.01
C15U G22C A41G	0.07
C15U A16C G29U	0.12

Variant	self-cleavage
C15A U20A G29U G36A	0.03
C15G G27A A41G C42U G44U	0.02
C15U C18A A41U	0.02
C15U G30C C37A	0.02
C15U G22U C31A U38C U43G	0.02
C15G G17U U38G	0.03
C15U A26C U32C G36U C42G	0.07
C15G C37U U43C G44A	0.02
C15U G36A U43G	0.3
C15G A26G C31G	0.01
C15G A16C G30C A39C C45U	0.02
C15U A25U A26C C37U G40U	0.02
C15G U20C U28A G30U	0.01
C15U G36A C45A	0.02
C15U A16C A26C	0.06
C15U U20A G33A C45A	0.32
C15U G27C U28A C45U	1.48
C15U G21C A41G G44C	0.06
C15U G17C G36C A41C	0.07
C15U C23U U32A	0.02
C15G G17U A26C G29C C42U	0.03
C15G C18G U38G A39G	0.02
C15U C18A G21C A39G	0.07
C15G C18U G21U U32A A41U	0.04

Variant	self-cleavage
C15U G17U G22C G40C	0.02
C15G A16G C18A C42U	0.04
C15U G35U A41C	0.11
C15G G29U C31G G44U	0.01
C15G C23U U38A A39U A41U	0.03
C15G G36A G40A	0.04
C15A G36A C42A	0.06
C15G G21C A24G	0.09
C15U A25U A41C	0.27
C15U G19U G35C G44U	0.06
C15A G35C G36C	0.09
C15G A16U G29A C31U	0.02
C15G G21A C37G	0.01
C15U G27C G35U C37G	0.22
C15U G27U U38A	0.12
C15U G19A G29U G30A C45U	0.12
C15G U20C U28C G30A	0.01
C15A U28A C46U	0.07
C15G G30U G44U C45U	0.04
C15U A16C C18U C37U	0.12
C15G G33U G35A A39G	0.02
C15U A39C C42A	0.04
C15G G17U G27C	0.17
C15A G29A G30A G33C	0.03

Variant	self-cleavage
C15G G21U G27A U32G G40C	0.01
C15G G21U U34G	0.02
C15U C37A U43A G44U	0.13
C15G G17A C23U G33A	0.08
C15U G17A A25C G35U	0.02
C15U C18A G29A U43C	0.03
C15U G22C U38C C46A	0.04
C15G G30A C31U	0.02
C15U C23G U43C	0.11
C15U A24G G36A	0.14
C15G G19A G29C	0.09
C15U G33U G35A	0.11
C15U G33C C42U	0.02
C15U A16U U20A G30C U32A	0.1
C15U A25U C37A	1.24
C15A G29C C37U	0.02
C15U G21U G29U G30A C42G G44U	0.02
C15G U28C C37G	0.01
C15G G21C C37U	0.05
C15G G27C C46A	0.04
C15G G27C C46U	0.04
C15U C23A G35A C37G	0
C15A U34G G36A C46A	0.06
C15U G19U G22A	1.2

Variant	self-cleavage
C15U G30U C42G	0.02
C15U A16U G27U	0.14
C15U G21C U34A	0.1
C15G G17U A39U	0.02
C15G A26C G30A U32A G36A A41U	0.02
C15U G35C G44A	0.04
C15G G29C U38C	0.06
C15U A25U U32A A39G A41U C46U	0.07
C15U A16U G17U G35U C46U	0.05
C15G A25U G33C	0.3
C15G G17C G40A C46U	0.01
C15U G27C U28C G33U	0.2
C15G A16U G27A G29A C37G	0.02
C15G G21C G36U	0.02
C15U A39C G44C C45G	0.02
C15U C23A U38A	0.54
C15G C18U G19U	0.01
C15U G21U A24U C42U	0.4
C15G U43C C45G	0.01
C15U C23G G30A C37G	0.03
C15U A25C A26G	1.51
C15G G33U G40U	0.02
C15G U34C G35U	0.04
